According to PMC5700166:
This is a selection; strong and weak results do not stand in their true shares. The list includes weakly bound sequences.

Target: T1, GST-Ap-NF-kB RHD (UniProt A0A913YAJ5)
T1 sequence: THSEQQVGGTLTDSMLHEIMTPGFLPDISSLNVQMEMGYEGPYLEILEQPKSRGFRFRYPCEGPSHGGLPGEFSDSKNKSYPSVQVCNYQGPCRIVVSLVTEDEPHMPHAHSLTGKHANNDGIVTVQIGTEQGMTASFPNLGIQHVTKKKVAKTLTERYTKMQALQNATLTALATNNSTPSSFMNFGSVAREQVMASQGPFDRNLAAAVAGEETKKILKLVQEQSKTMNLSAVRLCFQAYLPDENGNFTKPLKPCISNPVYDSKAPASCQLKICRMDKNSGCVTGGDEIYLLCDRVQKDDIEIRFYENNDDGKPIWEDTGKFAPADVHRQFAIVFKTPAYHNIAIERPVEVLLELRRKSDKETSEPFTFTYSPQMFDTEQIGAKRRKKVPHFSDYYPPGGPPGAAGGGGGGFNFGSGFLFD
Assay: protein-binding microarray (PBM)
Settings: PBM: ~300 nM protein, 6 mM HEPES pH 7.8, 80 mM KCl, 0.5 mM EDTA, 0.5 mM EGTA, 6% glycerol, 35 ng/ul poly-dIdC, 1% milk, 1 h, room temperature; Ap Aiptasia and Nv Nematostella (sea anemones) / Co Capsaspora / Aq Amphimedon (sponge) / Dm Drosophila / Hu human; RHD is the Rel homology domain; high values mean tight binding; most listed sequences are background and not binding sites; double strand, one strand shown

Row | Sequence | binding signal
1 | CCGATTAACATCACGGGATTTGGTGATGTTAATCGGGTCTTGATTCGCTTGACGCTGCTG | 1.89 z-score
2 | CCGATTAACATCAGGGGCAACCCTGATGTTAATCGGGTCTTGATTCGCTTGACGCTGCTG | 2.71 z-score
3 | CCGATTAACATCAGGGGGCGCACTGATGTTAATCGGGTCTTGATTCGCTTGACGCTGCTG | 3.71 z-score
4 | CCGATTAACATCACTCCCCCCCATGATGTTAATCGGGTCTTGATTCGCTTGACGCTGCTG | 5.11 z-score
5 | CCGATTAACATCAATAATTACCCTGATGTTAATCGGGTCTTGATTCGCTTGACGCTGCTG | 2.91 z-score
6 | CCGATTAACATCAACATTCCCCCTGATGTTAATCGGGTCTTGATTCGCTTGACGCTGCTG | 7.55 z-score
7 | CCGATTAACATCAGGGGACGTACTGATGTTAATCGGGTCTTGATTCGCTTGACGCTGCTG | 4.18 z-score
8 | CCGATTAACATCAGGGGAGGAAATGATGTTAATCGGGTCTTGATTCGCTTGACGCTGCTG | 3.45 z-score
9 | CCGATTAACATCAAAATTCCCAGTGATGTTAATCGGGTCTTGATTCGCTTGACGCTGCTG | 3.76 z-score
10 | CCGATTAACATCAGTATTTCCCATGATGTTAATCGGGTCTTGATTCGCTTGACGCTGCTG | 3.01 z-score
11 | CCGATTAACATCAGGGGAACTCATGATGTTAATCGGGTCTTGATTCGCTTGACGCTGCTG | 6.56 z-score
12 | CCGATTAACATCAACAAATTCCCTGATGTTAATCGGGTCTTGATTCGCTTGACGCTGCTG | 3.83 z-score
13 | CCGATTAACATCAGAAAAACCCCTGATGTTAATCGGGTCTTGATTCGCTTGACGCTGCTG | 7.98 z-score
14 | CCGATTAACATCAATTCCCCCCCTGATGTTAATCGGGTCTTGATTCGCTTGACGCTGCTG | 8.18 z-score
15 | CCGATTAACATCAGGAAACCCCATGATGTTAATCGGGTCTTGATTCGCTTGACGCTGCTG | 5.38 z-score
16 | CCGATTAACATCAGGGATCCCCATGATGTTAATCGGGTCTTGATTCGCTTGACGCTGCTG | 7.26 z-score
17 | CCGATTAACATCAGGAATACCCATGATGTTAATCGGGTCTTGATTCGCTTGACGCTGCTG | 4.37 z-score
18 | CCGATTAACATCAAATTCCCACTTGATGTTAATCGGGTCTTGATTCGCTTGACGCTGCTG | 2.15 z-score
19 | CCGATTAACATCACTAATCCCCCTGATGTTAATCGGGTCTTGATTCGCTTGACGCTGCTG | 6.44 z-score
20 | CCGATTAACATCAAACATTCCCTTGATGTTAATCGGGTCTTGATTCGCTTGACGCTGCTG | 2.36 z-score

Row | Sequence | binding signal
21 | CCGATTAACATCAACCCCCCCCTTGATGTTAATCGGGTCTTGATTCGCTTGACGCTGCTG | 4.76 z-score
22 | CCGATTAACATCAAGATTTTCCCTGATGTTAATCGGGTCTTGATTCGCTTGACGCTGCTG | 4.58 z-score
23 | CCGATTAACATCAGGGGGGTGTATGATGTTAATCGGGTCTTGATTCGCTTGACGCTGCTG | 3.69 z-score
24 | CCGATTAACATCAGGGGTTTCACTGATGTTAATCGGGTCTTGATTCGCTTGACGCTGCTG | 3.56 z-score
25 | CCGATTAACATCAGGGAACTACCTGATGTTAATCGGGTCTTGATTCGCTTGACGCTGCTG | 4.91 z-score
26 | CCGATTAACATCACAGAACCCCCTGATGTTAATCGGGTCTTGATTCGCTTGACGCTGCTG | 7.53 z-score
27 | CCGATTAACATCAGAGATTCCCCTGATGTTAATCGGGTCTTGATTCGCTTGACGCTGCTG | 8.42 z-score
28 | CCGATTAACATCAGGTAATTTACTGATGTTAATCGGGTCTTGATTCGCTTGACGCTGCTG | 0.504 z-score
29 | CCGATTAACATCAGCCCCCCCCATGATGTTAATCGGGTCTTGATTCGCTTGACGCTGCTG | 4.34 z-score
30 | CCGATTAACATCAGGGGATTCTATGATGTTAATCGGGTCTTGATTCGCTTGACGCTGCTG | 8.9 z-score
31 | CCGATTAACATCAGATTTCCCCATGATGTTAATCGGGTCTTGATTCGCTTGACGCTGCTG | 7.4 z-score
32 | CCGATTAACATCAGGGGATGGGATGATGTTAATCGGGTCTTGATTCGCTTGACGCTGCTG | 3.51 z-score
33 | CCGATTAACATCAGCACCCCCCCTGATGTTAATCGGGTCTTGATTCGCTTGACGCTGCTG | 5.67 z-score
34 | CCGATTAACATCAGGGGTATAACTGATGTTAATCGGGTCTTGATTCGCTTGACGCTGCTG | 1.94 z-score
35 | CCGATTAACATCAGTCCCCCCCATGATGTTAATCGGGTCTTGATTCGCTTGACGCTGCTG | 5.83 z-score
36 | CCGATTAACATCAGGGGAAAGCATGATGTTAATCGGGTCTTGATTCGCTTGACGCTGCTG | 5.49 z-score
37 | CCGATTAACATCAAAGAACCCCCTGATGTTAATCGGGTCTTGATTCGCTTGACGCTGCTG | 8 z-score
38 | CCGATTAACATCAGAATTACCCCTGATGTTAATCGGGTCTTGATTCGCTTGACGCTGCTG | 4.43 z-score
39 | CCGATTAACATCAGATTCCCCCATGATGTTAATCGGGTCTTGATTCGCTTGACGCTGCTG | 8.01 z-score
40 | CCGATTAACATCAGATGTCCCCCTGATGTTAATCGGGTCTTGATTCGCTTGACGCTGCTG | 6.05 z-score
